Assay results taken from article PMC2785803.
These are yes or no findings as the source states them, for the method shown. Binding seen in cells or lysates may run through a third protein. Some binding calls cover weakened binding; strength is not graded here. For part of these data: Where a sequence is shown, tags or fusion partners need not be part of it.

Sequences of proteins named here, by UniProt entry; tags and fusion partners are left off. A change or cut given only in a name is not applied to a line headed by its entry. A line that says so, or that is headed by a name, gives the form on record, which may keep a tag or linker.
UniProt P45481: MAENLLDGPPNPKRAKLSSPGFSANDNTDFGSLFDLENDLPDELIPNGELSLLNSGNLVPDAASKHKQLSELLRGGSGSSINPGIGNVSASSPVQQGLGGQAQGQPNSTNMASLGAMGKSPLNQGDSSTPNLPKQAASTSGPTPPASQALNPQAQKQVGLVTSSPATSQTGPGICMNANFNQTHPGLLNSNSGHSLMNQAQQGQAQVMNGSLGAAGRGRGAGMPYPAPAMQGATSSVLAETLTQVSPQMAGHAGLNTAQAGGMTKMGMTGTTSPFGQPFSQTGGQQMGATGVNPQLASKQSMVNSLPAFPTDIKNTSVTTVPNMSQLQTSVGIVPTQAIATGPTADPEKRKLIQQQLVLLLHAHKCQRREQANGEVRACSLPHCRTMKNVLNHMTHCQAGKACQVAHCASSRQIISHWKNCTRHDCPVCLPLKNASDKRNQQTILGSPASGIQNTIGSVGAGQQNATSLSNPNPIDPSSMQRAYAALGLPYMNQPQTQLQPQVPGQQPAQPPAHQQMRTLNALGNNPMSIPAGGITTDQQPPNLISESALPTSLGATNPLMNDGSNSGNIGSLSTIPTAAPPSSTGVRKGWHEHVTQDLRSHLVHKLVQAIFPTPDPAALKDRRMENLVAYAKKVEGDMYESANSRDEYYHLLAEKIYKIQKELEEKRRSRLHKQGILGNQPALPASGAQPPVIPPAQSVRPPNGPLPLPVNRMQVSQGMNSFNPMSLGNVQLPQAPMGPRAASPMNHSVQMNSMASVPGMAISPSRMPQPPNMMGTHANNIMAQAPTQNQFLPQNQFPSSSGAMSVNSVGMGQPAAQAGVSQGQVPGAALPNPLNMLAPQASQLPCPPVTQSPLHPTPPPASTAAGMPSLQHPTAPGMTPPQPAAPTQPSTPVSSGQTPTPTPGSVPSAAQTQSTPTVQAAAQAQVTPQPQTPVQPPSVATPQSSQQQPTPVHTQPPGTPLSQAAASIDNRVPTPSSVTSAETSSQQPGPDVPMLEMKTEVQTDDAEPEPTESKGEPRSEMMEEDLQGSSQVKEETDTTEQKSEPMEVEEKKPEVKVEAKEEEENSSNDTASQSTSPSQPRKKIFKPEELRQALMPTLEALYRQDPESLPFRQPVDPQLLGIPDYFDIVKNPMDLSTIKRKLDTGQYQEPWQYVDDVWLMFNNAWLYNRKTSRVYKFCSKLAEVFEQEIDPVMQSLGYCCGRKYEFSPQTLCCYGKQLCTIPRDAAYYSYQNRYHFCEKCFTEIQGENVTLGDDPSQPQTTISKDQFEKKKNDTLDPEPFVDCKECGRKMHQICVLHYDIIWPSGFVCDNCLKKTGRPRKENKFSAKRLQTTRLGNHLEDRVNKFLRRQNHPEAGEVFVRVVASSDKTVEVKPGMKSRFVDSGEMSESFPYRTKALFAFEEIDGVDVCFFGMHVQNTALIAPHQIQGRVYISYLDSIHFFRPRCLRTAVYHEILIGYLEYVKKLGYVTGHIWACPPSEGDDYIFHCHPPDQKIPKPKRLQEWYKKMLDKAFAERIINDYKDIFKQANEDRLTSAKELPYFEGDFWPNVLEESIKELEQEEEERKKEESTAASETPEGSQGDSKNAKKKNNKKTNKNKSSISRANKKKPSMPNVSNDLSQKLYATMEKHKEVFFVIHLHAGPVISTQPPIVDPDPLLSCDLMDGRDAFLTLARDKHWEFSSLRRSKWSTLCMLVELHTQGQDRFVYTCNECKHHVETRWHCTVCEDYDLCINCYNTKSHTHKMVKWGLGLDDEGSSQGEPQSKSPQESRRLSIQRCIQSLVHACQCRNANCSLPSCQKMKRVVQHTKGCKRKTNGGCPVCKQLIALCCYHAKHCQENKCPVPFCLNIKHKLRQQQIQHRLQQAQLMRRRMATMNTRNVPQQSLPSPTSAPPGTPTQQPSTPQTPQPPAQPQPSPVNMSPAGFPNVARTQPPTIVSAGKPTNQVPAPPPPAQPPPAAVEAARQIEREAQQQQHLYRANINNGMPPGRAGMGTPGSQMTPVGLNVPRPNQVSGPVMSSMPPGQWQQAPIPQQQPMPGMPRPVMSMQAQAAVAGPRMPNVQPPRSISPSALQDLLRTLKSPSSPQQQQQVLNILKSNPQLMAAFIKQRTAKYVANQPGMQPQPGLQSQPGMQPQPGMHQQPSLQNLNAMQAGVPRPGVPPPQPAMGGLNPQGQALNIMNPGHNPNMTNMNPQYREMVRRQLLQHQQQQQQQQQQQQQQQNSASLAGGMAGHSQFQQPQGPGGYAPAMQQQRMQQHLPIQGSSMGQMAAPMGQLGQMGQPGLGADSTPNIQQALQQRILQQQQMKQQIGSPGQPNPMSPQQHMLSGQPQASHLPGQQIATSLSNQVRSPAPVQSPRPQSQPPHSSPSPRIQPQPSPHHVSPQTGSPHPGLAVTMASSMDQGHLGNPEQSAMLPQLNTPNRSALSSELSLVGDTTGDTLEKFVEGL
UniProt Q9JHD1: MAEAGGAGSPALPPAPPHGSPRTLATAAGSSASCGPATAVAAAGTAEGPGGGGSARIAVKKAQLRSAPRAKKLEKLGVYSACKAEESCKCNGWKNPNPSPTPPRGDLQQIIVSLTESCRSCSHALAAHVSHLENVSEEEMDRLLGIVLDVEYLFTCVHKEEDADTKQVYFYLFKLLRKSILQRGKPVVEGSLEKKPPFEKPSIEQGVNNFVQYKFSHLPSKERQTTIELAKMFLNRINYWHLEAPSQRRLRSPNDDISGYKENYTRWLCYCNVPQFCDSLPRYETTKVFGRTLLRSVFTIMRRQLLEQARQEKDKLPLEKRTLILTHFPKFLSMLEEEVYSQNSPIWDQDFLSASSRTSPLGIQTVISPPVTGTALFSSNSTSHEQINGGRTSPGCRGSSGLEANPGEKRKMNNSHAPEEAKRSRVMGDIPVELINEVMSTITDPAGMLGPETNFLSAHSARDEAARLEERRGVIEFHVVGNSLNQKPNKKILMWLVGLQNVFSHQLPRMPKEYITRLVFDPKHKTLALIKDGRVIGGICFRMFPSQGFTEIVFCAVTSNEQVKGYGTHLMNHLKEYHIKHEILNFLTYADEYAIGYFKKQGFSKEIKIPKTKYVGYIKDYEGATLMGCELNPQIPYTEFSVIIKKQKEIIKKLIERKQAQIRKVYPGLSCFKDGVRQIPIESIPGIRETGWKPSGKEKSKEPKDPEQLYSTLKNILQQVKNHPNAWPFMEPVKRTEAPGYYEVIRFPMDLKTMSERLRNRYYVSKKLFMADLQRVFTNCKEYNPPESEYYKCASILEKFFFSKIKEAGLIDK
UniProt Q9WTL8: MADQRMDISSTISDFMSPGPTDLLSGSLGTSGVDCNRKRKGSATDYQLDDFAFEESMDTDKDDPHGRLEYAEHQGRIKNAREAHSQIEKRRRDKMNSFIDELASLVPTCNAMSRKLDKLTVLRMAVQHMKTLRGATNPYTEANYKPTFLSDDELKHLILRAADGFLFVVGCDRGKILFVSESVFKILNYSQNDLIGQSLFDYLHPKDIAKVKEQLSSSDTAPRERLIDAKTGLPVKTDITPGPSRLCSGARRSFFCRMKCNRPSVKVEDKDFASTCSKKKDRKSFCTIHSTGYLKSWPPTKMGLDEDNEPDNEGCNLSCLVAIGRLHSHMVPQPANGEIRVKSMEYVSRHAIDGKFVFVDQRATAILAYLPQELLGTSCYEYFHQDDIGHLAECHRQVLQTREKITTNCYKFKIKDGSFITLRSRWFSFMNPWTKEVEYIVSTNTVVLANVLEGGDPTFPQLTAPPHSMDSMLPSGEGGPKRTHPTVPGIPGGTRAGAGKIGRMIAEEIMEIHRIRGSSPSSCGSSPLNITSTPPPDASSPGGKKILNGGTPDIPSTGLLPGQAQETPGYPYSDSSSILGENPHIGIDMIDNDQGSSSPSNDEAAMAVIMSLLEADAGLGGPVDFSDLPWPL
myc-YFP-CREB_(DIEDML) (Q01147-1, form named): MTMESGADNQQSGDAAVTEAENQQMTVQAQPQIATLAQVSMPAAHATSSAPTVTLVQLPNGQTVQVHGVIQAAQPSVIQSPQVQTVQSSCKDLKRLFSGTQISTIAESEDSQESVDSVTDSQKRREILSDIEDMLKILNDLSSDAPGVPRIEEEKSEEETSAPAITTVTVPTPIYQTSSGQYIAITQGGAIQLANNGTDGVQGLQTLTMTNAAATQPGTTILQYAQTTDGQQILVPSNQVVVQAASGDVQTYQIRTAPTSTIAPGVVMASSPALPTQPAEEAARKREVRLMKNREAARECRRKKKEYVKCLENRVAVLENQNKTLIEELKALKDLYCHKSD

What was measured:
[1] = target: endogenous CBP of NIH3T3 cells (mouse (endogenous in NIH3T3)) (UniProt P45481); assay: co-IP; NIH3T3 cells transfected with a myc-tagged protein only (endogenous CBP); IP with anti-CBP antibody or anti-rabbit IgG, Western blot with anti-myc
[2] = target: CREB binding protein (CBP), expressed from pcDNA3CBP (UniProt P45481); assay: co-IP; NIH3T3 cells transfected with pcDNA3CBP and a myc-tagged protein; IP with anti-CBP antibody or anti-rabbit IgG, Western blot with anti-myc or anti-CBP
[3] = target: CREB binding protein (CBP), expressed from pcDNA3CBP (UniProt P45481); assay: co-IP; COS-1 cells transfected with pcDNA3CBP and one myc- or HA-tagged protein; IP with anti-CBP antibody or anti-rabbit IgG, Western blot with anti-myc, anti-HA or anti-CBP
HA-pCAF = HA-pCAF (UniProt Q9JHD1); assay: co-IP; COS-1 cells transfected with pmyc-CLOCK or pmyc-BMAL1 and pHA-pCAF; IP with anti-HA antibody, Western blot with anti-myc
myc-HDAC3 = target: T1, myc-HDAC3 (UniProt O88895); assay: co-IP; COS-1 cells transfected with pEYFP-CLOCK or pEYFP-BMAL1 and pmyc-HDAC3; anti-myc precipitates, Western blot with anti-GFP
T1 sequence: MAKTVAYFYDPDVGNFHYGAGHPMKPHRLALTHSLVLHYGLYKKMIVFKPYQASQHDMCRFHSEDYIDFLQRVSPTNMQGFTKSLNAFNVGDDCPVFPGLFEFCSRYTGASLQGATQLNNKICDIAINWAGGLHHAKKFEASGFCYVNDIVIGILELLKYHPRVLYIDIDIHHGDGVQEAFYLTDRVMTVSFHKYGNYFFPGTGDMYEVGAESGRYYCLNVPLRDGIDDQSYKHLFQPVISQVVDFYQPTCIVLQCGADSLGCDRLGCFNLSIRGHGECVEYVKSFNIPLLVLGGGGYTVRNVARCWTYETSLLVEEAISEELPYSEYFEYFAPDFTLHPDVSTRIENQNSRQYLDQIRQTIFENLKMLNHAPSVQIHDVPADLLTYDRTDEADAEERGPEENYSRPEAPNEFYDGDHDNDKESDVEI

HA-BMAL1 = HA-BMAL1 (UniProt Q9WTL8); assay: co-IP; NIH3T3 cells transfected with pHA-BMAL1 and pmyc-CLOCK; IP with anti-HA antibody, Western blot with anti-HA or anti-myc

Molecule | binding [1] | binding [2] | binding [3] | binding (HA-pCAF) | binding (myc-HDAC3) | binding (HA-BMAL1)
YFP-BMAL1 (from UniProt Q9WTL8 1-632) |  |  |  |  | no binding | 
myc-CLOCK (protein, UniProt O08785 1-855) MVFTVSCSKMSSIVDRDDSSIFDGLVEEDDKDKAKRVSRNKSEKKRRDQFNVLIKELGSMLPGNARKMDKSTVLQKSIDFLRKHKETTAQSDASEIRQDWKPTFLSNEEFTQLMLEALDGFFLAIMTDGSIIYVSESVTSLLEHLPSDLVDQSIFNFIPEGEHSEVYKILSTHLLESDSLTPEYLKSKNQLEFCCHMLRGTIDPKEPSTYEYVRFIGNFKSLTSVSTSTHNGFEGTIQRTHRPSYEDRVCFVATVRLATPQFIKEMCTVEEPNEEFTSRHSLEWKFLFLDHRAPPIIGYLPFEVLGTSGYDYYHVDDLENLAKCHEHLMQYGKGKSCYYRFLTKGQQWIWLQTHYYITYHQWNSRPEFIVCTHTVVSYAEVRAERRRELGIEESLPETAADKSQDSGSDNRINTVSLKEALERFDHSPTPSASSRSSRKSSHTAVSDPSSTPTKIPTDTSTPPRQHLPAHEKMTQRRSSFSSQSINSQSVGPSLTQPAMSQAANLPIPQGMSQFQFSAQLGAMQHLKDQLEQRTRMIEANIHRQQEELRKIQEQLQMVHGQGLQMFLQQSNPGLNFGSVQLSSGNSNIQQLTPVNMQGQVVPANQVQSGHISTGQHMIQQQTLQSTSTQQSQQSVMSGHSQQTSLPSQTPSTLTAPLYNTMVISQPAAGSMVQIPSSMPQNSTQSATVTTFTQDRQIRFSQGQQLVTKLVTAPVACGAVMVPSTMLMGQVVTAYPTFATQQQQAQTLSVTQQQQQQQQQPPQQQQQQQQSSQEQQLPSVQQPAQAQLGQPPQQFLQTSRLLHGNPSTQLILSAAFPLQQSTFPPSHHQQHQPQQQQQLPRHRTDSLTDPSKVQPQ | no binding |  |  | binds |  | binds
YFP-CLOCK (protein, UniProt O08785 1-855) MVFTVSCSKMSSIVDRDDSSIFDGLVEEDDKDKAKRVSRNKSEKKRRDQFNVLIKELGSMLPGNARKMDKSTVLQKSIDFLRKHKETTAQSDASEIRQDWKPTFLSNEEFTQLMLEALDGFFLAIMTDGSIIYVSESVTSLLEHLPSDLVDQSIFNFIPEGEHSEVYKILSTHLLESDSLTPEYLKSKNQLEFCCHMLRGTIDPKEPSTYEYVRFIGNFKSLTSVSTSTHNGFEGTIQRTHRPSYEDRVCFVATVRLATPQFIKEMCTVEEPNEEFTSRHSLEWKFLFLDHRAPPIIGYLPFEVLGTSGYDYYHVDDLENLAKCHEHLMQYGKGKSCYYRFLTKGQQWIWLQTHYYITYHQWNSRPEFIVCTHTVVSYAEVRAERRRELGIEESLPETAADKSQDSGSDNRINTVSLKEALERFDHSPTPSASSRSSRKSSHTAVSDPSSTPTKIPTDTSTPPRQHLPAHEKMTQRRSSFSSQSINSQSVGPSLTQPAMSQAANLPIPQGMSQFQFSAQLGAMQHLKDQLEQRTRMIEANIHRQQEELRKIQEQLQMVHGQGLQMFLQQSNPGLNFGSVQLSSGNSNIQQLTPVNMQGQVVPANQVQSGHISTGQHMIQQQTLQSTSTQQSQQSVMSGHSQQTSLPSQTPSTLTAPLYNTMVISQPAAGSMVQIPSSMPQNSTQSATVTTFTQDRQIRFSQGQQLVTKLVTAPVACGAVMVPSTMLMGQVVTAYPTFATQQQQAQTLSVTQQQQQQQQQPPQQQQQQQQSSQEQQLPSVQQPAQAQLGQPPQQFLQTSRLLHGNPSTQLILSAAFPLQQSTFPPSHHQQHQPQQQQQLPRHRTDSLTDPSKVQPQ |  |  |  |  | binds | 

Second part, the molecule after the results:

binding [1] | binding [2] | binding [3] | binding (HA-pCAF) | binding (myc-HDAC3) | binding (HA-BMAL1) | Molecule
binds | binds | binds |  |  |  | myc-YFP-CREB_(DIEDML) (from UniProt Q01147-1 1-341)
no binding | no binding | no binding | no binding |  |  | myc-BMAL1 (from UniProt Q9WTL8 1-632)
